Assay results reported in PubChem BioAssay AID1346378 (National Center for Advancing Translational Sciences (NCATS), 2018).
Where “and” joins values, the source holds several entries; their conditions need not be identical. Equal entries are not always repeated. In all, about 420,000 compounds went through this assay and about 540 (0.13%) were called active. The inconclusive results got no clear call from the source; some entries with a clear call stand among them for comparison. Rule as the data show it: active = activity change below about -50%; inconclusive = mostly about -30% to -49%; inactive = weaker than that.

The compounds below were run against Phosphatidylinositol 4-kinase type 2-alpha (Homo sapiens) (UniProt Q9BTU6) (assay: qHTS for small molecular inhibitors of PI4K2A). Conditions: purified PI4K2A, ADP-Glo luminescence, 1 h; at 76.9 µM, active compounds read low.
UniProt Q9BTU6, sequence (Q9BTU6 whole entry, looked up): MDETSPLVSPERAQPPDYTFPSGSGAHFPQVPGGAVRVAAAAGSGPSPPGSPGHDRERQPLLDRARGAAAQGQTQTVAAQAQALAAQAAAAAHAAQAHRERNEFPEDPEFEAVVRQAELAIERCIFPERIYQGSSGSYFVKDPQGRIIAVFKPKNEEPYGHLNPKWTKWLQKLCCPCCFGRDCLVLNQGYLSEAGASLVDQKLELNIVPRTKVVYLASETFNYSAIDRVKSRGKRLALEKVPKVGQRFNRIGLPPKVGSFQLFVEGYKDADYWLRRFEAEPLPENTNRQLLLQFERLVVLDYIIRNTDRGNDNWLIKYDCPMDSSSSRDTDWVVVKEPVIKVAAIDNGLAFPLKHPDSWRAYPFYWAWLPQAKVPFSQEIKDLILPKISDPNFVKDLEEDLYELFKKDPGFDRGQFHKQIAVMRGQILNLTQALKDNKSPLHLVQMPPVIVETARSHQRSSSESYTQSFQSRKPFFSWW
Procedure, shortened: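 In this quantitative HTS, ADP production by PI4K2A was quantified luminescently after 1 h at ambient temperature; 100 microM adenosine served as plate-quality control.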
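Also: -100% = wells without enzyme as full effect.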

Activity change, negative = inhibition, inactive:
O=C(Nc1ccc2c(c1)OCO2)N1CCN(c2cccc(C(F)(F)F)c2)CC1 0.203%
COc1ccc(-c2cc(-c3ccccc3)nc3ncnn23)cc1 0.665%
O=C(OCc1ccccc1)N1CCC2CC1c1cc(-c3cc4ccccc4o3)ccc12 (stereo not drawn) -3.89%
CCN(CC)C(=O)N1CCN(C)CC1 2.45% and 0.448%
CCSc1ncc(Cl)c(C(=O)Nc2sc3c(c2C(=O)NCc2cccnc2)CCCC3)n1 -2.78%
CC(=O)Nc1ccccc1NC(=O)C/C(C)=N/NC(=O)c1ccc([N+](=O)[O-])c(Cl)c1 -4.03%
O=C(N/N=C/c1ccc(-c2ccccc2[N+](=O)[O-])o1)c1cncc(Br)c1 -0.115%
COCCCn1c(SCC(=O)Nc2oc(C)c3c(C)n[nH]c(=O)c23)nc2ccccc2c1=O 1.36%
COc1cc(CC(=O)Nc2cccc(S(=O)(=O)N(C)c3ccccc3)c2)cc(OC)c1OC -3.7%
COc1ccc(-n2cnnc2)cc1 0.785%
OCc1ccc(O)c2ncccc12 -10.2%
C=CCNc1nc(N)c(C(=O)Nc2cc(C)on2)s1 -3.24%
CC(C)NC(=O)c1ccc(C=O)cc1 -0.276%
CCC(=O)Nc1ccc(-c2nnc3c4ccccc4c(C)nn23)cc1 -2.47%
Oc1ccc(CN2CCCc3ccccc32)c2cccnc12 4.54%
CCOC(=O)c1ccc(N2CSC3=C(C#N)C(c4cccs4)CC(=O)N3C2)cc1 (stereo not drawn) -2.8%
Nc1nc(NCc2ccco2)nc(N2CCN(Cc3ccccc3)CC2)c1[N+](=O)[O-] 1.65%
N#C/C(=C\c1cccnc1)C(=O)Nc1cccc(Cl)c1 -3.66%
CC(=O)N1CCN(C(=O)c2ccc(CNC(=O)c3cccc(Br)c3)cc2)CC1 6.19%
O=C(CN1C(=O)/C(=C\c2cccc(Br)c2)Oc2ccccc21)NCCCN1CCOCC1 3.99%
CC1=C(c2ccc(C(C)C)cc2)S(=O)(=O)NC1=NCc1ccccc1Br -6.54%
Cc1ccc(F)c(NC(=O)Nc2ccc3snnc3c2)c1 -4.34%
Cc1ccc(OC(=O)CCS(=O)(=O)c2ccc(C)cc2)cc1 1.33%

Activity change, negative = inhibition, inconclusive:
Cc1nnc(Sc2cc(NCCCO)c([N+](=O)[O-])c3nonc23)s1 -30.2%
O=C(O/N=C1/CCCc2occc21)c1ccccc1 -31.4%
COc1ccc(OC)c(Nc2cc3ccccc3c(=O)[nH]2)c1 -49.2%
O=Nc1ccc(NOC(=O)c2ccccc2Br)cc1 -30.2%
COc1ccc(C(=O)Nc2nc3c(s2)Cc2cc(OC)ccc2-3)cc1 -37.8%
CSc1ccc(/C=N/NC(=O)c2cccc(O)c2)cc1 -31.9%
CC1=CC(=O)C=CC1=Nc1ccc(N(C)C)cc1 -40.3%
OCCN(Cc1ccccn1)Cc1ccccn1 -34.4%
CCOC(=O)C1=C(CSc2nc3c(cc2C#N)CN(C)CC3)OC(N)=C(C#N)C1c1ccc(F)cc1 (stereo not drawn) -31%
Cc1[nH][nH]c(=O)c1C(c1c(C)[nH][nH]c1=O)c1cn(C)c2ccccc12 -32.4%
c1ccc(Cn2c(SCc3nc4ccccc4s3)nnc2-c2ccco2)cc1 -42.6%
Cc1cccc(NC(=O)c2onc3c2CCCC3)n1 -44.5%
O=C(Cc1ccccc1)Nc1ccc(N2CCCCC2)cc1 -30.2%
COc1ccc(Cn2c(C)c(C)c(C#N)c2NC(=O)Nc2cccc(C)c2)cc1 -34.1%
Cc1[nH][nH]c(=O)c1C(c1c(C)[nH][nH]c1=O)c1cn(Cc2cccc3ccccc23)c2ccccc12 -36.9%
O=C(Cn1c(=O)oc2cc(S(=O)(=O)N3CCCC3)ccc21)NC1CCCc2ccccc21 (stereo not drawn) -36.5%
CCCC(=Nc1ccc(N)cc1)C1=C(O)C(C(=O)OC)C(C)(C)CC1=O (stereo not drawn) -42.7%
Cc1ccccc1C(=O)Nc1ccc2c(c1)OCO2 -38.9%
O=C(Nc1ccccc1)c1cc2ccccc2o1 -36.1%
COc1ccc(-c2nnc(SCC(=O)N/N=C\C=C/c3ccco3)n2-c2ccc(C)cc2)cc1 -32.8%
O=C(COc1ccc2c(c1)oc(=O)c1ccccc12)N[C@@H](Cc1c[nH]c2ccccc12)C(=O)O -33.4%
O=C(CSc1ccc(-c2ccc(F)cc2)nn1)N1CCCCC1 -38%
Cn1cccc1C(=O)C(=O)Nc1ccccc1 -39.1%
CCOC(=O)c1c(-c2ccco2)csc1NC(=O)CSc1nnc(N)s1 -33.5%
CCc1nnc(N/N=C/c2cc(Br)c(O)cc2O)n1N -31.4%
CC(=O)c1cccc(-c2ccc3c(=O)[nH]c(Nc4ccccc4)cc3c2)c1 -48.3%
CN(C)c1ccc(N/C=C/C(=O)c2ccccc2)cc1 -44.3%
COC(=O)CCc1c(C)c(C(=O)c2ccco2)c2ccccn12 -43%
O=C(CCC1COc2ccccc2O1)Nc1ncccc1O (stereo not drawn) -33%
CCOc1ccc(NC(=O)c2ccc(F)cc2F)cc1 -45.3%
O=C(Nc1ncc([N+](=O)[O-])s1)c1ccc2c(c1)OCO2 -38.1%
O=C(CN1CCc2ccccc21)Nc1ccc2c(c1)OCO2 -45.3%
O=C(Nc1ccc(-n2nncc2-c2ccco2)cc1)c1cc2ccccc2oc1=O -36.9%
Nc1ncnc2c1ncn2[C@H]1C[C@H](O)[C@@H](CO)O1 -31.2%
CCC(=Nc1ccc(N)cc1)C1=C(O)C(C(=O)OC)C(C)(C)CC1=O (stereo not drawn) -30.6%
CCCc1cc(=O)oc2cc(OCC(=O)Nc3ccc(S(N)(=O)=O)cc3)ccc12 -47.1%
Oc1ccc2ccccc2c1C=NC12CN3CCN(CN(C3)C1)C2 -30.7%
COC1=C(Nc2ccc(O)cc2)C(=O)c2ccccc2C1=O -37.3%
c1ccc(-c2csc(NNC3=NCCCCC3)n2)cc1 -43.3%
O=C1CCCC/C1=C\Nc1ccc(O)cc1 -30.2%
COc1ccc2oc(C(=O)N3CCc4ccccc43)c(C)c2c1 -43.4%
O=C(O)/C=C/C(=O)c1ccc2c(c1)CCc1ccccc1-2 -35.3%
CCn1c(SCC(=O)N/N=C/C=C/c2ccco2)nnc1-c1ccccc1 -33.2%
COc1cccc(C(c2c(C)[nH]n(-c3ccccc3)c2=O)c2c(C)[nH]n(-c3ccccc3)c2=O)c1OC -32.6%
Oc1c(N=Nc2ccccn2)ccc2ccccc12 -47.1%
CCCCC(=Nc1ccc(N)cc1)C1=C(O)C(C(=O)OC)C(C)(C)CC1=O (stereo not drawn) -42.5%

Activity change, negative = inhibition, active:
COc1ccc(OC)c(N/C=C/C(=O)c2ccccc2)c1 -51.7%
O=C(/C=C/c1ccc(O)cc1)c1ccccc1 -74.6%
Cc1ccc(C(=O)Nc2ccc(C(=O)N3CCCCC3)cc2)o1 -52.8%
O=c1[nH]c(=S)[nH]c2c1C(c1ccc(Br)cc1)c1c([nH]c(=S)[nH]c1=O)O2 -55.6%
Cc1cccc(-c2nnn3c2nc(NCc2ccc4c(c2)OCO4)c2ccccc23)c1 -52.9%
CNS(=O)(=O)c1ccc2nc(NC(=O)/C=C/c3ccco3)sc2c1 -61.5%
Cc1cccc(OC(=O)CN2C(=O)C3C4CCC(C4)C3C2=O)c1C (stereo not drawn) -84.7%
Oc1ccc(/C=N/Nc2ncnc3nc[nH]c23)cc1 -52.3%
c1ccc2sc(-c3ccc4c(c3)OCO4)nc2c1 -67.6%
O=C(Nc1c(-c2ccc3c(c2)OCO3)[nH][nH]c1=O)c1ccccc1 -59.9%
CN(C)c1ccc(C=c2c3cc([N+](=O)[O-])ccc3n3c2cc(-c2ccccc2)[n+]3C)cc1 -50.6%
Cn1c(/C=C/c2ccccc2)nc2ccccc21 -66.2%
CCCN1C=CC(=C2C(=O)c3ccccc3C2=O)C=C1 -54.4%
Cc1cc(C)c(S(=O)(=O)/N=C2/C=C(Sc3ncn[nH]3)C(=O)c3ccccc32)cc1C -54%
Cn1c(N=Nc2ccccc2)nc2ccccc21 -87.3%
Cc1ccc(C)n1-c1ccc(C(=O)NN)cc1 -81.6%
COc1ccc(-c2cc3nc(CCl)[nH]c(=O)c3s2)cc1 -50.3%
CC1Oc2ccccc2N(CC(=O)N(Cc2ccccc2)Cc2ccccn2)C1=O (stereo not drawn) -71.2%
COc1ccc(C(=O)Nc2noc3ccccc23)cc1 -73.1%
Fc1ccc(Nc2cncc(-c3ccsc3)c2)cc1Cl -50.3%
COC1=CC(=O)c2nc(Cl)ccc2C1=O -57.7%
Cc1nc(-[n+]2nc(-c3ccncc3)nn2-c2ccccc2)sc1C -73.2%
O=c1oc(Nc2ccc(F)cc2)nc2ccccc12 -57.4%
Cc1ccc(-n2nnc(-c3nccn3C)n2)cc1 -52.5%
